{"source": "paper PMC9574860", "about": "“Chemical Toolkit for PARK7: Potent, Selective, and High-Throughput” (Journal of Medicinal Chemistry, 2022)", "note": "Out of some 7,900 compounds screened, about 400 (5.1%) showed an effect of 50% or more. The list shows a part of the results."}
{"biological_target": "Parkinson's disease protein 7 (PARK7/DJ1) (human, UniProt Q99497)", "sequence (Q99497 whole entry, looked up, the tested form may be a part)": "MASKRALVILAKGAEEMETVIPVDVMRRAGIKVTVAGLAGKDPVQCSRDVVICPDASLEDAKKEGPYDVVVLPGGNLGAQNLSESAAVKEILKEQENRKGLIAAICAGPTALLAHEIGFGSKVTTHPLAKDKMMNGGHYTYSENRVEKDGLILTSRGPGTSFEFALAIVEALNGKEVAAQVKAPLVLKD", "test": "primary screen, percent inhibition; read as competition with a fluorescent probe by fluorescence polarization; higher = more effect of the substance", "settings": "100 µM", "how_it_was_run": "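Covalent fragments at 100 μM final were incubated 2 h with 0.2 μM PARK7, then 20 nM probe JYQ-107 added for a further 2 h. Fluorescence polarization read at 480/520 nm; relative FP loss versus reference controls gave remaining enzyme activity.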", "units": {"Inhibition %": "%"}}
{"smiles": "CCOc1cc(S(=O)(=O)n2cccn2)ccc1Cl", "Inhibition %": -0.661}
{"smiles": "C=CC(=O)N1CCCC1c1cccs1", "note": "(stereo not drawn)", "Inhibition %": 4.68}
{"smiles": "CCCNC(=O)C(C#N)=Cc1nc(C)c(C)[nH]1", "Inhibition %": 13.8}
{"smiles": "C=CC(=O)Nc1cnn2ccccc12", "Inhibition %": 97}
{"smiles": "O=C(O)C1Cc2ccccc2CN1C(=O)CCl", "note": "(stereo not drawn)", "Inhibition %": 40.5}
{"smiles": "Cc1nc(S)nc(O)c1C", "Inhibition %": 0.0569}
{"smiles": "COc1ccc(C(C#N)N2CCN(C(=O)CCl)CC2)cc1", "note": "(stereo not drawn)", "Inhibition %": 9.52}
{"smiles": "O=C(CCl)NC1CCCc2ccccc21", "note": "(stereo not drawn)", "Inhibition %": 4.42}
{"smiles": "C=CC(=O)N1CC(c2ccc(F)cc2)CC1C", "note": "(stereo not drawn)", "Inhibition %": 6.19}
{"smiles": "O=C(CCl)N1CCCC2CCCCC21", "note": "(stereo not drawn)", "Inhibition %": 14.1}
{"smiles": "Cc1noc(C)c1B1OC(C)(C)C(C)(C)O1", "Inhibition %": 2.59}
{"smiles": "NC(=O)C1CCCCN1C(=O)CCl", "note": "(stereo not drawn)", "Inhibition %": 12.3}
{"smiles": "C=CC(=O)Nc1cc(C2CC2)nn1-c1ncccn1", "Inhibition %": 33.8}
{"smiles": "Cc1c(C#N)c(S)nc2c1CCC2", "Inhibition %": 15.1}
{"smiles": "C=CC(=O)NCc1nc2cc(F)ccc2o1", "Inhibition %": 3.57}
{"smiles": "O=C(C=Cc1nccs1)N1CCc2ccccc21", "Inhibition %": 14.3}
{"smiles": "C=CC(=O)N1CCC(Cn2nc(C)cc2C)CC1", "Inhibition %": 1.11}
{"smiles": "Fc1cccc(F)c1C1=NOC(CCl)C1", "note": "(stereo not drawn)", "Inhibition %": 7.37}
{"smiles": "C=CC(=O)N1CCC(N2CCCS2(=O)=O)CC1", "Inhibition %": 8.7}
{"smiles": "Cc1ccsc1-c1nnc(NC(=O)CCl)o1", "Inhibition %": 10.8}
{"smiles": "O=C(CCl)c1ccc(O)c(O)c1", "Inhibition %": 75.1}
{"smiles": "CC1(C)OB(c2ccc(S(C)(=O)=O)cc2Cl)OC1(C)C", "Inhibition %": 4.5}
{"smiles": "C=CC(=O)N1CCN(CC(F)(F)F)C(=O)C1", "Inhibition %": 8.9}
{"smiles": "CN(CC1(O)CCCC1)c1ccc(C#N)nc1", "Inhibition %": 6.66}
{"smiles": "C=CC(=O)NCCn1ccnc1C", "Inhibition %": 19.6}
{"smiles": "Cc1oc(-c2ccccc2)nc1CN1C(=O)CCC1=O", "Inhibition %": 1.27}
{"smiles": "CC1(C)OB(c2ccc3c(c2)OCO3)OC1(C)C", "Inhibition %": 3.89}
{"smiles": "N#Cc1nccnc1Oc1ccc(N)cc1", "Inhibition %": 9.92}
{"smiles": "N#Cc1ncn(CC(=O)Nc2cc(F)cc(F)c2)n1", "Inhibition %": -3.2}
{"smiles": "C=CC(=O)N1CCC2(CC1)OCCc1ccccc12", "Inhibition %": 3.72}
{"smiles": "CC1(C)OB(c2ccc(Cl)cc2)OC1(C)C", "Inhibition %": 4.5}
{"smiles": "C=CC(=O)NCC1C2Cc3ccccc3C12", "note": "(stereo not drawn)", "Inhibition %": 22.4}
{"smiles": "N#Cc1ccc(N2CCOCC2)cn1", "Inhibition %": 2.34}
{"smiles": "Cc1ccc(C(=O)CCl)cc1", "Inhibition %": 32.3}
{"smiles": "CCCOc1ccc(S(=O)(=O)n2cccn2)cc1C", "Inhibition %": 2.9}
{"smiles": "Cn1cc(C=C(C#N)C(=O)NCCc2ccccc2)cn1", "Inhibition %": 9.69}
{"smiles": "Cc1ccc(NC(=O)CN(C)C(=O)CCl)cc1", "Inhibition %": 96.5}
{"smiles": "O=C(O)C1CCN(C(=O)C=Cc2ccccc2F)CC1", "Inhibition %": 7.3}
{"smiles": "C1CCCC2(CC1)CO2", "Inhibition %": 5.37}
{"smiles": "O=C1OCCC1Sc1nnc(-c2ccncc2)o1", "note": "(stereo not drawn)", "Inhibition %": 6.02}
{"smiles": "COCc1ccc(SC(=O)N(C)C)cc1", "Inhibition %": 7.64}
{"smiles": "O=C(Oc1ccc2c(c1)OCO2)N1CCOCC1", "Inhibition %": 4.01}
{"smiles": "COc1ccc(OCCS)cc1", "Inhibition %": 3.61}
{"smiles": "N#Cc1cc(N2CC(O)CC2c2ccc(F)cc2)ccn1", "note": "(stereo not drawn)", "Inhibition %": 5.08}
{"smiles": "O=c1oc(-c2ccc(F)cc2)nn1CN1CCOCC1", "Inhibition %": 5.48}
{"smiles": "C=CC(=O)N1CCc2cc(OC)c(Cl)cc2C1", "Inhibition %": 1.32}
{"smiles": "CC(C)NC(=O)C(C#N)=Cc1cccs1", "Inhibition %": 4.15}
{"smiles": "Cn1ncc(C(=O)CCl)n1", "Inhibition %": 95.3}
{"smiles": "C=CC(=O)NCC1CCCc2cc(OC)ccc21", "note": "(stereo not drawn)", "Inhibition %": 3.52}
{"smiles": "Cc1cc(OC(F)F)ccc1B1OC(C)(C)C(C)(C)O1", "Inhibition %": 3.76}
{"smiles": "C=CC(=O)N1CCN(c2ccc(Cl)cn2)CC1", "Inhibition %": 6.88}
{"smiles": "O=C(NCc1ccccn1)N1CCCCC1C1OCCO1", "note": "(stereo not drawn)", "Inhibition %": 10.7}
{"smiles": "CC(C)NC(=O)N1CCCC(C2OCCO2)C1", "note": "(stereo not drawn)", "Inhibition %": 3.8}
{"smiles": "Cn1cc(NC(=O)CN2CCSC2=O)cn1", "Inhibition %": 71.6}
{"smiles": "CC(C)N1C2CCC1CN(c1ccc(C#N)nc1)CC2", "note": "(stereo not drawn)", "Inhibition %": 3.5}
{"smiles": "COc1ccc(NS(=O)(=O)c2ccc(S(=O)(=O)F)cc2)cn1", "Inhibition %": 100}
{"smiles": "O=C1OCCC1N1CC=C(c2c[nH]c3ccccc23)CC1", "note": "(stereo not drawn)", "Inhibition %": 4.4}
{"smiles": "N#Cc1ccc(C2OCCO2)o1", "Inhibition %": 3.58}
{"smiles": "Cn1cc(B2OC(C)(C)C(C)(C)O2)c(C2CC2)n1", "Inhibition %": 7.49}
{"smiles": "O=C1CCC(=O)N1CCSc1cccc(Cl)c1", "Inhibition %": 8.82}
{"smiles": "CC(C)(C)N(Cc1ccccc1)C(=O)CCl", "Inhibition %": 9.42}
{"smiles": "c1cc(OCC2CO2)c2cc[nH]c2c1", "note": "(stereo not drawn)", "Inhibition %": -2.42}
{"smiles": "O=S1(=O)CCCN1c1cccc(NCc2ccccc2B(O)O)c1", "Inhibition %": 9.49}
{"smiles": "O=C(O)C1CCCN1C(=O)C=Cc1cc2ccccc2o1", "note": "(stereo not drawn)", "Inhibition %": 15}
{"smiles": "C=CC(=O)N1CC(C)(C)C1c1nccn1-c1cccc(F)c1", "note": "(stereo not drawn)", "Inhibition %": 9.73}
{"smiles": "C=CC(=O)N1CCOC(C#N)C1", "note": "(stereo not drawn)", "Inhibition %": 7.14}
{"smiles": "Cc1cc(C)n(-c2cccc(B(O)O)c2)n1", "Inhibition %": -1.1}
{"smiles": "O=c1oc(-c2ccccc2)nn1CN1CCCSCC1", "Inhibition %": 33.1}
{"smiles": "C=CC(=O)N1CCCc2c(OCC(N)=O)cccc21", "Inhibition %": 32}
{"smiles": "C=CC(=O)N1CCSC(C(C)C)C1", "note": "(stereo not drawn)", "Inhibition %": 7.2}
{"smiles": "C=CC(=O)NC1(c2ccc(F)c(F)c2)CC1", "Inhibition %": 7.92}
{"smiles": "C=CC(=O)NCCN1CCCC1=O", "Inhibition %": 3.27}
{"smiles": "C=CCNC(=O)CN(C#N)c1ccccc1", "Inhibition %": 3.22}
{"smiles": "Cc1ncc(C=CC(=O)N2CCCC(N)C2)s1.Cl.Cl", "note": "(stereo not drawn)", "Inhibition %": 12}
{"smiles": "Cl.O=C(O)C1CCN(C(=O)C=Cc2ccc(F)cc2)C1", "note": "(stereo not drawn)", "Inhibition %": 2.01}
{"smiles": "CC1(C)OB(c2ccc(Cl)o2)OC1(C)C", "Inhibition %": -2.01}
{"smiles": "C=CC(=O)N1CCS[C@H](C)C1", "Inhibition %": 3.07}
{"smiles": "Cc1cnc(S(=O)(=O)F)nc1", "Inhibition %": 33.7}
{"smiles": "C=CC(=O)N1CCS(=O)(=O)C(C)C1", "note": "(stereo not drawn)", "Inhibition %": 4.2}
{"smiles": "N#CC(c1ccc(F)cc1)N1CCN(C(=O)CCl)CC1", "note": "(stereo not drawn)", "Inhibition %": 6.3}
{"smiles": "N#Cc1cc(Oc2ccc(CC(=O)O)cc2)ccn1", "Inhibition %": 3.5}
